Results on 25 sequences are retold here after the supplement of paper PMC11417369.

Some of the results follow.

The test system of this assay is PfAP2-HC AP2 domain (GST-tagged). Description: gcPBM binding intensity (ln(normalized median fluorescence intensity)); higher = stronger DNA binding. The gist of the method:
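After 1 h on an Agilent 4 × 180k array of primer-extended double-stranded 36-bp intergenic genomic probes and negative controls, bound GST-tagged P. falciparum DNA-binding domains were detected with Alexa488 anti-GST antibody and scanned at 488 nm. The domains had been expressed in E. coli, and binding took place in 1× PBS with 1% milk, 0.2 mg/ml BSA, 0.5% salmon testes DNA and 0.03% Triton X-100. Binding intensity is the highest Masliner-normalised natural-log median intensity across replicate spots of either probe orientation.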
On to “GAATAAATTGTATTGTGTACATATAAAAGCATCTAA [XGTACX_site8271]”, for which the “gcPBM binding intensity (ln)” value came to 9.7.

As to “AAGAAGAAACAAAACACACACAGTCTTCTTTTCTAT [CACACA_site3088]”, the “gcPBM binding intensity (ln)” value worked out at 10.8.

Take “TACAGAATTGTATATAGTACATAAAACAATATATAT [XGTACX_site7275]”: the “gcPBM binding intensity (ln)” value was 9.69.

Take “GTATATGAATAATATTTTATGGTAATTTTTTTTTTT [XGTACX_negctrl_site512]”: the “gcPBM binding intensity (ln)” value was 9.4.

Regarding “GGTGGTAAAAAACCTGCATGTCGAAATATTAAATAC [TGCATGCA_site33]”, the “gcPBM binding intensity (ln)” value is 9.64.

On to “AAAAAAAAAAAAAAGAGTACTCATATAAAAATATAA [XGTACX_site6551]”, for which the “gcPBM binding intensity (ln)” value was determined as 9.52.

Consider “TTTTTATAAAAAATTTACACTATATGACAGAAGTAA [XGTACX_negctrl_site481]”, for which the “gcPBM binding intensity (ln)” value stood at 9.31.

Take “AATGAAAAGTAAAATACACACACATAATATAATTTA [CACACA_site8608]”: the “gcPBM binding intensity (ln)” value is 10.6.

“TGTGTAAAAATCATGGGTACACATTTTGATACCAAT [XGTACX_site1779]”: the “gcPBM binding intensity (ln)” value amounted to 9.81.

Take “AAACTTGACGAACACACACACACATATATAAAAAAA [CACACA_site6494]”: the “gcPBM binding intensity (ln)” value is 11.5.

As to ATACTATTTAAATGGGTGCTAAAAATAACAAAAATT, the “gcPBM binding intensity (ln)” value is 9.57.

For “TCTTTTTATGTTCTAGAGCATTTTATTATTTAACAT [CACACA_negctrl_site1699]”, the “gcPBM binding intensity (ln)” value was 9.81.

For the sequence ATATTTTTATATGAGGTGCATATAATGACAATTAAG, the “gcPBM binding intensity (ln)” value is 9.64.

For “GAAGTTAGTGTTGACTGTACATATATATGTATATAT [XGTACX_site7243]”, the “gcPBM binding intensity (ln)” value worked out at 9.78.

Take “TTTTCTTTTTGTTCGTGTACACACATGAAATTTATA [XGTACX_site3301]”: the “gcPBM binding intensity (ln)” value was determined as 9.88.

For “AAACGTACATAATACACACACATGTATACATATAAA [CACACA_site2048]”, the “gcPBM binding intensity (ln)” value stood at 10.2.

As for “ATTTCTTTTTTTTTTTTTTTTAATGTAAAACATTTT [CACACA_negctrl_site1462]”, the “gcPBM binding intensity (ln)” value stood at 9.58.

Consider “AATCGAAATCGTGCACGGACACATGCAGTAGCCGAG [XGTACX_site6001]”, for which the “gcPBM binding intensity (ln)” value was 9.64.

In the case of “TATACCTATAAATACACACACATATATAAATAAATA [CACACA_site6730]”, the “gcPBM binding intensity (ln)” value was determined as 10.3.

As to “ATATATATACACAATAGTACGTGTAATATTATTATT [XGTACX_site2151]”, the “gcPBM binding intensity (ln)” value was 9.73.

On to “TTTCCGGTAATATGGAAATATATGTGGGTTTTTTTT [CACACA_negctrl_site1536]”, for which the “gcPBM binding intensity (ln)” value worked out at 9.62.

In the case of “ACTATTTTAAAAATATGTACATACGTTGTAATTTAA [XGTACX_site7999]”, the “gcPBM binding intensity (ln)” value came out at 9.48.

Regarding “CGAAGGATAAACATACGTACATATATGTGTATAATA [XGTACX_site779]”, the “gcPBM binding intensity (ln)” value worked out at 9.9.

In the case of “TATATTTATAAATGAACACACACGCAATTTGAATCG [CACACA_site3370]”, the “gcPBM binding intensity (ln)” value came to 10.2.

Regarding “CTGTATTTATTTTTCTGTACCAAATCACCCCTTGTA [XGTACX_site395]”, the “gcPBM binding intensity (ln)” value came out at 9.62.
